According to PubChem BioAssay AID686978 (National Center for Advancing Translational Sciences (NCATS), 2013):
The campaign covered roughly 420,000 compounds. About 64,000 (15%) were called active. Inconclusive means that the source gave no clear call. Such entries were picked first, then a sample of the others. Calls follow the shape of the dose curve; as a rule, active = well fitted inhibition curve with a large enough effect; inconclusive = small, poorly fitted or top-dose-only effect; inactive = flat fitted curve, though single readings scatter. No potency is given beside an inconclusive call; the fits are too rough.

Assay: qHTS for Inhibitors of human tyrosyl-DNA phosphodiesterase 1 (TDP1): qHTS in cells in absence of CPT; also: nearly all actives have a fitted effect of over 55% in size
Conditions: DT40 Tdp1-/- hTDP1 cells, no CPT, ATP luminescence, 48 h; activity change, negative = growth inhibition: at 46.2 µM (top of the series)
In short: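 Seeded 400 DT40-hTDP1 cells/well (vehicle DMSO, no 20 nM CPT); pinned compounds; ≥48 hr at 37 °C; CellTiter-Glo luminescence as viability measure.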
% is scaled to controls: 0 for no effect and ±100 for the full control effect; potency is read from the fitted curve at half-maximal effect; tags tell the direction and shape of the fitted curve.

Row | SMILES | Potency | activity change, negative = growth inhibition
1 | CNc1cc(N2CCCCCC2)ccc1[N+](=O)[O-] | inconclusive [inhibitor, single point] | 
2 | COC(=O)C1=C(C)NC(=O)NC1c1ccc(N2CCC(c3ccccc3)=N2)cc1 (stereo not drawn) | inconclusive [inhibitor, single point] | 
3 | Cc1ccc(CN2CCN(/N=C/c3ccc(Cl)c([N+](=O)[O-])c3)CC2)cc1 | inconclusive [inhibitor, partial curve] | 
4 | Cc1ccc(NC(=O)CCCCCN2C(=O)[C@@H]3Cc4ccccc4CN3C2=O)c(C)c1 | inconclusive [inhibitor, partial curve, poor fit] | 
5 | O=C(O)CCc1n[nH]c(=S)[nH]c1=O |  | inactive: -3.46%
6 | C=CCn1c(SCC(=O)Nc2ccc(OC)cc2)nnc1-c1cnccn1 |  | inactive: -14.5%
7 | Cc1ccc2nc(NCCCO)[nH]c2c1 | inconclusive [inhibitor, full curve, poor fit] | 
8 | CN(C)CCCNC(=O)C[C@H]1C[C@H](C(=O)N2CCOCC2)[C@@]2(C)c3[nH]c4cc(-c5ccco5)ccc4c3CCN2C1=O |  | inactive: -6.14%
9 | Cc1ccc2nc(-c3ccc(NC(=O)C(C)Sc4nncs4)cc3)sc2c1 (stereo not drawn) | active: 9.2 µM | 
10 | CSc1ccc(CN2CCC(C)(Oc3ccc(C(C)=O)cc3)C2)cc1 (stereo not drawn) | inconclusive [inhibitor, single point] | 
11 | O=C1OCCC1Sc1nnnn1-c1ccc(Cl)cc1 (stereo not drawn) |  | inactive: -2.93%
12 | Cc1ccc(Cn2c(CN3CCC(C(=O)NCc4cccnc4)CC3)cc3ccccc32)cc1 | inconclusive [inhibitor, single point] | 
13 | CCN(CC)CC(O)CN(c1ccccc1)S(=O)(=O)c1ccc2ccccc2c1 (stereo not drawn) | inconclusive [inhibitor, single point] | 
14 | CC(=O)c1cccc(NC(=O)CCS(=O)(=O)c2ccc3c(c2)n(C)c(=O)c(=O)n3C)c1 |  | inactive: 0.712%
15 | COCCn1nnnc1C(c1cc2ccc(OC)cc2[nH]c1=O)N1CCc2ccccc2C1 (stereo not drawn) |  | inactive: -20.4%
16 | O=C1CCCC(O)=C1C=Nc1ccc2c(c1)oc1ccccc12 | inconclusive [inhibitor, single point] | 
17 | COc1ccc(-c2cc(=O)oc3cc(OCC(=O)NCCN4CCOCC4)ccc23)cc1 | inconclusive [inhibitor, single point] | 
18 | O=C(CSc1nc2ccc(Cl)cc2[nH]1)c1c[nH]c2ccccc12 | inconclusive [inhibitor, single point] | 
19 | COc1ccc(OC)c(NC(=O)CSc2c3c(nc4cc(Cl)ccc24)CCCC3)c1 | active: 23.1 µM | 
20 | CCN(CC(=O)NCc1ccc(F)cc1)C(=O)c1ccc(Cl)cc1 |  | inactive: 2.52%
21 | CCOC(=O)C1CCCN(C(=O)C2CCN(Cc3nc(-c4ccc(Cl)cc4)oc3C)CC2)C1 (stereo not drawn) | active: 20.6 µM | 
22 | O=C(CN1Cc2ccccc2OC(c2ccccc2)C1)N1CCCCC1c1cccnc1 (stereo not drawn) | inconclusive [inhibitor, single point] | 
23 | Cc1csc(NC(=O)Cc2ccccc2[N+](=O)[O-])n1 | inconclusive [inhibitor, full curve] | 
24 | COc1ccc(CCCNC(=O)C2Cc3c(-c4cccc(C(C)=O)c4)ccnc3O2)cc1 (stereo not drawn) | active: 4.61 µM | 

Row | SMILES | Potency | activity change, negative = growth inhibition
25 | COc1ccccc1NC(=O)Nc1ccc2[nH]c(=O)[nH]c2c1 |  | inactive: -0.833%
26 | CCN(CC)c1ccc(/C=N/NC(=S)NC)c(O)c1 | active: 0.517 µM | 
27 | COc1ccc(NC(=S)NC(=O)/C=C/c2ccco2)cc1 | inconclusive [inhibitor, single point] | 
28 | COc1ccc(OC)c(NC(=O)C2CCCN(S(=O)(=O)c3ccc4[nH]c(=O)ccc4c3)C2)c1 (stereo not drawn) | active: 23.1 µM | 
29 | CCCCCCCCC(=O)N1CCN(c2cc3c(cc2F)c(=O)c(C(=O)O)cn3CC)CC1 |  | inactive: -15%
30 | Cc1cnn(-c2cc(N/N=C/c3ccccc3Cl)ncn2)c1 | inconclusive [inhibitor, single point] | 
31 | COc1cccc(-c2cnc(C(O)c3cccc(C)c3C)[nH]2)c1 (stereo not drawn) |  | inactive: -17.9%
32 | COc1ccc(NC(=O)N(Cc2cc3cc(C)ccc3[nH]c2=O)CC2CCCO2)cc1 (stereo not drawn) | inconclusive [inhibitor, single point] | 
33 | O=C(CNC(c1ccccc1)c1ccccc1)Nc1ccccc1-c1ccccc1 | active: 18.4 µM | 
34 | O=C(c1ccco1)N1CCN(C(=O)c2ccc(-c3cccc(C(F)(F)F)c3)o2)CC1 | active: 20.6 µM | 
35 | COc1ccccc1OCCNC(=O)CN1C(=O)NC2(CCCC2)C1=O |  | inactive: -7.5%
36 | Cc1c(Cl)cccc1NC(=O)Nc1nnc(N(C)C2CCCCC2)s1 | active: 16.4 µM | 
37 | O=Cc1ccc(C(=O)OCC(=O)NCc2ccco2)cc1 |  | inactive: 7.46%
38 | CCOc1ccc2[nH]cc(C(=O)NCc3ccccc3)c(=O)c2c1 | active: 20.6 µM | 
39 | C[n+]1ccc(/C=C/c2ccc([N+](C)(C)C)cc2)c2ccccc21 | active: 0.158 µM | 
40 | Cc1ccc(CCNC(=O)c2cnc3c(C)cccn3c2=O)cc1 | inconclusive [inhibitor, full curve] | 
41 | O=C1COc2ccc(C(=O)CSc3nnc(Cc4cccs4)n3-c3ccc(Cl)cc3)cc2N1 | active: 18.4 µM | 
42 | CC1CCCN(C(=O)c2ccc(COc3ccccc3Br)cc2)C1 (stereo not drawn) | inconclusive [inhibitor, single point] | 
43 | COc1ccc(-c2nc3cnc(N4CCNCC4)nc3n(C)c2=O)cc1 | inconclusive [inhibitor, single point] | 
44 | CCOC(=O)N1CCN(Cc2nc3cc(NC(=O)c4ccc(F)cc4)ccc3n2C(C)C)CC1 | active: 1.03 µM | 
45 | CCN1C(=O)[C@H]2[C@@H](c3ccc(C(F)(F)F)cc3)N[C@]3(CCCN(Cc4ccco4)C3=O)[C@H]2C1=O | active: 16.4 µM | 
46 | Cc1ccc(CNC(=O)Cn2cnc3c(NC(=O)OCc4ccccc4)ncnc32)o1 |  | inactive: -12.1%
47 | CCCNc1ccc(S(=O)(=O)N(C(C)C)C(C)C)cn1 | inconclusive [inhibitor, single point] | 
48 | Cc1cc(C)n2nc(-c3ccccc3)c(-c3ccccc3)c2n1 | inconclusive [inhibitor, single point] | 
